Measurements from PubChem BioAssay (Tox21).
Values joined by “and” are separate entries in the source; they are usually repeats but may differ in a detail not shown here. Identical values can stand only once. Inconclusive results, whose numbers are uncertain, are shown with a selection of clear calls. For some assays here: Where the call is inconclusive, the potency comes from a doubtful curve fit. Active and inactive are the calls of the source. Unless noted, calls follow the shape of the full dose curve.

Legend:
[1] = qHTS assay to identify small molecule antagonists of the sonic hedgehog signaling (Shh) pathway (AID 1259369); also: potency is read from the fitted curve at half-maximal effect; nearly all actives have a fitted effect of over 45% in size
Summary of the method: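 NIH/3T3 stable Gli1-Luc clone, 2,000 cells/well, 4hr settle; cpd + conditioned medium 24hr; Luc reagent 30min RT; luminescence.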

[2] = qHTS assay to identify small molecule agonists of the estrogen receptor beta (ER-beta) signaling pathway - cell viability counter screen (AID 1259380; active = well fitted curve in the direction sought with a large enough effect in the repeat runs; inconclusive = weak or mixed curves; inactive = no such curve, though single readings can be large; an effect the other way counts as inactive or inconclusive; also: potency is read from the fitted curve at half-maximal effect; nearly all actives have a fitted effect of over 30% in size)
Summary of the method: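 Measured: luminescence from CellTiter-Glo after 30 min at room temperature, added to wells already read for the LiveBLAzer FRET reporter (2 hr substrate); ER-beta-UAS-bla HEK293T cells had 16 hr compound treatment at 37C, 5% CO2.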

[3] = molecular target: Progesterone receptor (Homo sapiens) (UniProt P06401); assay: qHTS assay to identify small molecule agonists of the progesterone receptor (PR) signaling pathway (AID 1346784); conditions: PR-UAS-bla HEK293T, beta-lactamase FRET ratio, 16 h; activation: at 92.4 µM (top of the series) unless noted; also: potency is read from the fitted curve at half-maximal effect; nearly all actives have a fitted effect of over 30% in size
Chain of UniProt P06401 (P06401 whole entry, looked up): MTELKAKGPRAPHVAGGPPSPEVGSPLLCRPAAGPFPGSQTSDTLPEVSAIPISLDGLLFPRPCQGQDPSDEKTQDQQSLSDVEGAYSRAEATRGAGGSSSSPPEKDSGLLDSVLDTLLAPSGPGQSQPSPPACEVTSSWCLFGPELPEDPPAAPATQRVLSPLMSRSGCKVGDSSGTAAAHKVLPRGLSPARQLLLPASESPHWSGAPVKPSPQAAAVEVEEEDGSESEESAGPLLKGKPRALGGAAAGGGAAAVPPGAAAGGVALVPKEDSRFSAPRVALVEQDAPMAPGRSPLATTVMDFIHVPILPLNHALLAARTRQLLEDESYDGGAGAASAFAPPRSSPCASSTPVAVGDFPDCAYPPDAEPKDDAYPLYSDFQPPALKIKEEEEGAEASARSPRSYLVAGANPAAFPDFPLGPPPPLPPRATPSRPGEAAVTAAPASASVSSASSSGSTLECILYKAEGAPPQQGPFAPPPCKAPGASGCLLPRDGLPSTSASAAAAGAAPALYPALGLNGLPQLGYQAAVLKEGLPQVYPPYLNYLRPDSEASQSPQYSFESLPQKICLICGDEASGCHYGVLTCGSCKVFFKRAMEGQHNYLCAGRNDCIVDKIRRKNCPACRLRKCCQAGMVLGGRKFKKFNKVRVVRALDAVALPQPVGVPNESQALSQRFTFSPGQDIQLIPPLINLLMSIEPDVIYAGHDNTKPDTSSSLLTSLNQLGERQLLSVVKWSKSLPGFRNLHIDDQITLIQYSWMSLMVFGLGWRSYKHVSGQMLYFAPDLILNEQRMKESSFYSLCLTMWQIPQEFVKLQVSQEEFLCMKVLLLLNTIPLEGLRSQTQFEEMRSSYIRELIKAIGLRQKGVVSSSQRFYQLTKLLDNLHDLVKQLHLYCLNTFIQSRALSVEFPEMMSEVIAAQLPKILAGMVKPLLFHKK
Summary of the method: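 PR-UAS-bla HEK 293T cells (beta-lactamase reporter under UAS) in 2% charcoal-stripped FBS, dosed with 23 nL compound after 6 hr, incubated 16hr at 37C. LiveBLAzer B/G FRET substrate added, fluorescence read after 2 hours.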

[4] = molecular target: Progesterone receptor (Homo sapiens) (UniProt P06401); assay: qHTS assay to identify small molecule antagonists of the progesterone receptor (PR) signaling pathway (AID 1346795; active = well fitted inhibition curve with a large enough effect in the signal ratio in the repeat runs, not every such curve was filed as active; inconclusive = weak or mixed curves; the % refers to the signal ratio; also: potency is read from the fitted curve at half-maximal effect); conditions: PR-UAS-bla HEK293T, beta-lactamase FRET ratio, 16 h; activity change, negative = inhibition: at 92.4 µM (top of the series) unless noted
Summary of the method: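 PR-UAS-bla HEK293T cells with beta-lactamase reporter under UAS control, in 2% charcoal-stripped FBS, treated with compounds plus 1 nM promegestone (R5020, final) for 16 hr at 37C. Read-out: FRET beta-lactamase substrate fluorescence after 2 hr at room temperature.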

[5] = qHTS assay to identify small molecule antagonists of the progesterone receptor (PR) signaling pathway - cell viability counter screen (AID 1346798; active = well fitted curve in the direction sought with a large enough effect in the repeat runs; inconclusive = weak or mixed curves; inactive = no such curve, though single readings can be large; an effect the other way counts as inactive or inconclusive; also: nearly all actives have a fitted effect of over 50% in size; also: potency is read from the fitted curve at half-maximal effect)
Summary of the method: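 PR-UAS-bla HEK293T cells, 3,000/well in 2% charcoal-stripped FBS medium, dosed with compounds plus R5020 agonist and incubated 16 h at 37C. Viability then measured in the same wells by CellTiter-Glo luminescence after 30 min at RT.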

[6] = qHTS assay to identify small molecule agonists of the progesterone receptor (PR) signaling pathway - cell viability counter screen (AID 1346799); also: potency is read from the fitted curve at half-maximal effect; nearly all actives have a fitted effect of over 45% in size
Summary of the method: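 Counter screen in the PR-UAS-bla HEK293T wells (2% charcoal-stripped FBS, 16 h compound exposure at 37 C) after the bla read. CellTiter-Glo added, 30 min at room temperature, luminescence read as cell viability.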

[7] = qHTS assay to identify small molecule antagonists of the estrogen receptor beta (ER-beta) signaling pathway - cell viability counter screen (AID 1259382; active = well fitted curve in the direction sought with a large enough effect in the repeat runs; inconclusive = weak or mixed curves; inactive = no such curve, though single readings can be large; an effect the other way counts as inactive or inconclusive;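 also: HEK293T cells carrying ER-beta-UAS-bla reporter stimulated with estradiol; % is scaled to controls: 0 for no effect and ±100 for the full control effect; nearly all actives have a fitted effect of over 55% in size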)
Summary of the method: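 Readout: luminescence, CellTiter-Glo, same wells as bla assay. System: ER-beta-UAS-bla GripTite HEK293T, 2% charcoal-stripped FBS. Exposure: compounds plus 1nM 17-beta-estradiol, 16 hr, 37C.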

[8] = qHTS assay to identify small molecule agonists or antagonists of the thyroid stimulating hormone receptor (TSHR) signaling pathway - wild type cell line counter screen (AID 1259384); conditions: HEK293 wild type, cAMP HTRF counter-screen; cAMP activity change: at 92.4 µM (top of the series), stronger effect = higher value unless noted; also: % is scaled to controls: 0 for no effect and ±100 for the full control effect
Summary of the method: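 Wild-type HEK293 cells were plated 18 h at 37 C/5% CO2, pin-dosed with compound plus Ro20-1724 medium, held 30 min at room temperature, then given cAMP-d2 and anti-cAMP-cryptate; fluorescence was read after 1 h. Fifteen concentrations, triplicate.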

[9] = molecular target: Thyrotropin receptor (Homo sapiens) (UniProt P16473); assay: qHTS assay to identify small molecule antagonists of the thyroid stimulating hormone receptor (TSHR) signaling pathway (AID 1259385); conditions: TSHR-HEK293 cAMP HTRF, TSH-stimulated antagonist mode; activity change, negative = inhibition: at 92.4 µM (top of the series) unless noted; also: potency is read from the fitted curve at half-maximal effect; nearly all actives have a fitted effect of over 20% in size
Chain of UniProt P16473 (P16473 whole entry, looked up): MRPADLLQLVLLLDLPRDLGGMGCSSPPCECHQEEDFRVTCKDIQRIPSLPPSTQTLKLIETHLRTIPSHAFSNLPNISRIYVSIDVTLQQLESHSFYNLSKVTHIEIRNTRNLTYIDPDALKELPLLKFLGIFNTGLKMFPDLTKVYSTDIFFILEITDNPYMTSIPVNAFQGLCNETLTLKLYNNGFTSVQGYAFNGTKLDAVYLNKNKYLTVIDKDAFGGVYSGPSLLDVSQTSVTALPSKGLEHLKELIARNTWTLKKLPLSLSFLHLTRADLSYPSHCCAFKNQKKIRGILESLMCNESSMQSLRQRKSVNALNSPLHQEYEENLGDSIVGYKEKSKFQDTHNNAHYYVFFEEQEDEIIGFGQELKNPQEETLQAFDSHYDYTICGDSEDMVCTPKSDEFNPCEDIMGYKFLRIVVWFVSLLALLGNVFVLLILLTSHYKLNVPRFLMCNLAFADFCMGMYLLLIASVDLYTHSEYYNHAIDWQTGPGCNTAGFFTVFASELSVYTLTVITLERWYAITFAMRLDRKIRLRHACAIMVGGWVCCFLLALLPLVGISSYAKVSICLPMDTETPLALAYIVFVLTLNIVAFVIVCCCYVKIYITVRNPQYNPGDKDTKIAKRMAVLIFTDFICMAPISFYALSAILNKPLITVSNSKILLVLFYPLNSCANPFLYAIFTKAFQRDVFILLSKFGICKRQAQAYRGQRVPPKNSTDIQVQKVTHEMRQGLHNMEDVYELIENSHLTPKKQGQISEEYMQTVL
Summary of the method: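 TSHR-HEK293 cells were plated and held 18 h at 37C/5% CO2, then given compound plus Ro20-1724 and stimulated with TSH at 1.5 ng/mL final. After 30 min at room temperature, cAMP was detected with cAMP-d2/anti-cAMP-cryptate (1 h) by fluorescence.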

[10] = qHTS assay to identify small molecule agonists of the estrogen receptor alpha (ER-alpha) signaling pathway in the presence of an antagonist - cell viability counter screen (AID 1259386; active = well fitted curve in the direction sought with a large enough effect in the repeat runs; inconclusive = weak or mixed curves; inactive = no such curve, though single readings can be large; an effect the other way counts as inactive or inconclusive;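 also: potency is read from the fitted curve at half-maximal effect; cells exposed to compounds for 22 h at 37 °C before the viability read; nearly all actives have a fitted effect of over 30% in size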)
Summary of the method: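 The test measures whether compounds kill ER-alpha reporter cells (VM7Luc4E2) under antagonist co-treatment (ICI-182,780, 10.0nM). Fluorescence from CellTiter-Fluor is read after a 22hr exposure.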

[11] = qHTS assay to identify small molecule agonists of the TGF-beta/Smad signaling pathway (AID 1346859; active = well fitted activation curve with a large enough effect in the signal ratio in the repeat runs, not every such curve was filed as active; inconclusive = weak or mixed curves; the % refers to the signal ratio; also: potency is read from the fitted curve at half-maximal effect); conditions: SBE-bla HEK293T, TGF-beta/Smad beta-lactamase reporter, 5 h; activation: at 76.8 µM (top of the series)
Summary of the method: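 SBE-bla HEK293T cells plated overnight, then compound exposure for 5 h at 37 C. Beta-lactamase reporter read with LiveBLAzer B/G FRET substrate after 2 h at room temperature, fluorescence at 405 nm excitation, 460/530 nm emission.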
Tags tell the direction and shape of the fitted curve or compound fluorescence and quenching.

In the case of `C[C@H]1C[C@@H]2[C@H]([C@@H](O)C[C@@]3(C)[C@H]2CC[C@]3(O)C(=O)CO)[C@@]2(C)C=CC(=O)C=C12`, the Potency [1] is reported as inconclusive: 6.86 µM [inhibitor, partial curve], the Potency [2] is reported as inconclusive: 68.6 µM [cytotoxic, partial curve, poor fit] and the Potency [3] is reported as active: 48.6 µM. For the same compound, the Potency [4] was inconclusive: 2.73 µM and inconclusive: 2.11 µM [full curve] and the Potency [5] was “inactive”.

With `Cc1occc1C(=O)Nc1ccc(C(=O)N2CCC(F)(F)/C(=C\C(=O)N3CCC(N4CCCCC4)CC3)c3ccccc32)cc1` the Potency [1] was inconclusive: 15.2 µM [inhibitor, partial curve, poor fit], the Potency [2] was inconclusive: 19.1 µM [cytotoxic] and the Potency [5] was inconclusive: 17 µM [cytotoxic, partial curve]. The Potency [6] was inconclusive: 17 µM [cytotoxic, partial curve].

With `C=CC(=O)OCCC(=O)O` the Potency [1] was inconclusive: 1.26 µM [inhibitor, single point], the Potency [7] was “inactive” and the Potency [6] was inconclusive: 70.9 µM [rising, partial curve, poor fit].

For `COc1ccc(C(=O)Nc2nc3ccccc3c(NCc3ccccc3)c2C#N)cc1`, the Potency [1] was inconclusive: 2.17 µM [inhibitor, full curve], the cAMP activity change [8] was inconclusive: 6.67% and the Potency [9] was inconclusive: 43.3 µM [falling, partial curve]. The Potency [10] was inconclusive: 13.7 µM [cytotoxic, full curve] and the Potency [11] was inconclusive: 24.5 µM [rising, partial curve].
